The source of these data is article PMC12040169 (PLOS Biology, 2025).

Where two headings read alike, the source gives them in different places. This is one part of the list.

The test system of this experiment is T1, C. trachomatis L2/434/Bu expressing GFP (CTL2-GFP).
T1 construct: L2/434/Bu GFP intracellular growth in HeLa cells
More on the design: species or system HeLa; C. trachomatis total inclusion area by high-content imaging, normalised to DMSO. Put shortly:
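Post-fluorescence-read fixation, DNA staining with Hoechst and high-content imaging; GFP inclusion area and number per well, and nuclei counts, used as proxies for bacterial growth and host viability.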

Setting [1] is: total inclusion area; 28.5 h, 10 µM; inhibitor.

On to `CCOC(=O)c1sc(NS(=O)(=O)c2ccc(Cl)c(Cl)c2)nc1C` [CBK077228], for which the “% of control remaining” value under setting [1] is 89.8726.
On the same count and under the same terms, then `COc1ccc2nc(NC(=O)c3cnc(-c4ccc(Cl)cc4)c(-c4cccnc4)c3)sc2c1` [CBK037576], with 140.737; and `CCc1nnc(NC(=O)CCc2ccccc2)s1` [CBK057943], with 78.1561.
Same read-out and setting: then `COc1cc(Cl)cc(C2NC(=S)NC(c3ccccc3)=C2C(C)=O)c1OCC(=O)O` (stereo not drawn) [CBK268801], with 117.707; and `N#Cc1ccccc1NC(=O)CSc1cnn[nH]1` [CBK269795], with 100.354.
The same measure, in the same setting: then `O=C(CSc1nn2cnnc2s1)Nc1ccc(I)cc1` [CBK268913], with 75.6719; and `CC(C)CN1CCC(C(=O)NC(c2ccc(Cl)cc2)c2cnccn2)CC1` (stereo not drawn) [CBK148026], with 100.139.
As for `CC(C)(O)C1(C)OC(NC2C3CC4CC(C3)CC2C4)=NC1=O` (stereo not drawn) [CBK126370], under setting [1], the “% of control remaining” value is 86.3282.
Still for that read-out and setting: next, `O=C(Nc1nc(-c2ccncc2)cs1)c1sc2ccccc2c1Cl` [CBK287562]: 113.812.
On the same count and under the same terms, next, `COCC1(C(=O)N2CC(=O)N(c3ccccc3C#N)CC2C)CCC1` (stereo not drawn) [CBK307159]: 60.0253.
Take `CC(Oc1ccccc1F)C(=O)N1CCCCC1CN(C)C` (stereo not drawn) [CBK281544]: under setting [1], the “% of control remaining” value is on record as 89.7135.
`CC(=O)NC1CCN(c2nc(C(C)(C)C)nc3c2cnn3C)CC1` [CBK307431]: under setting [1], the “% of control remaining” value came out at 87.0867.
The same measure, in the same setting: then `O=C(N[C@@H]1CNCCC[C@H]1O)c1ccc(OCCN2CCOCC2)cc1` [CBK289065], with 96.6219; and `CC1=CC(C)C2C(=O)N(c3ccc(C(=O)O)cc3)C(=O)C2C1` (stereo not drawn) [CBK286923], with 88.0242.
With `O=[N+]([O-])c1ccc(OC(CNS(=O)(=O)c2ccc(Cl)cc2)c2ccccc2)cc1` (stereo not drawn) [CBK262817], the “% of control remaining” value under setting [1] is on record as 81.35.
On to `COc1ccccc1C(=O)O/N=C1/CCCc2c1ccc(OC)c2[N+](=O)[O-]` [CBK263555], for which the “% of control remaining” value under setting [1] came out at 63.5913.
On the same count and under the same terms, next, `CCOc1cc2c(cc1NC(=O)CN(c1cccc(Cl)c1)S(C)(=O)=O)OC(C)C2` (stereo not drawn) [CBK248179]: 119.9.
Take `CCOc1ccc(S(=O)(=O)N2CCN(S(=O)(=O)c3cccc([N+](=O)[O-])c3)CC2)cc1` [CBK266341]: the “% of control remaining” value under setting [1] was 116.097.
For the compound `COc1ccc2c(C)nc(NC3=NC(c4ccccc4)CC(=O)N3)nc2c1` (stereo not drawn) [CBK270230], the “% of control remaining” value under setting [1] is 137.207.
On to `CCc1nc2c(OCCOc3ccccc3)cccn2c1N(C)C(=O)COc1ccccc1` [CBK147355], for which the “% of control remaining” value under setting [1] is 93.4529.
Take `COC(=O)c1ccc(-c2cc3ccccc3o2)nc1` [CBK149228T]: the “% of control remaining” value (total inclusion area, 28.5 h, 10 µM, inhibitor) is given as 104.271.
For `CC(C)c1ccc2oc(-c3ccc(NC(=S)NC(=O)c4cncc(Br)c4)cc3)nc2c1` [CBK264913], the “% of control remaining” value under setting [1] turned out to be 106.057.
The same measure, in the same setting: next, `CCOC(=O)c1cc(NC(=O)CSc2nc3ccccc3[nH]2)ccc1Cl` [CBK266557]: 108.605; `O=C(O)c1n[nH]c2c1COc1ccccc1-2` [CBK266356]: 91.6068; `O=C(CSc1nc2sc3c(c2c(=O)n1CCc1ccccc1)CCCC3)Nc1ccccc1` [CBK267281]: 91.4312.
On the same count and under the same terms, then `c1ccc(CN2CCC(NCc3ccco3)C(c3ccccc3)C2)cc1` (stereo not drawn) [CBK286167], with 91.9892; and `Cc1ccc(-c2nccnc2OCc2ccco2)cc1C` [CBK106863], with 136.946; and `CCC(=O)N1CCC(NCc2ccc(OCC(N)=O)cc2)C(C)C1` (stereo not drawn) [CBK303989], with 49.2002.
On the same count and under the same terms, next, `Nc1ccc(-c2ccc3c(c2)OCCCO3)c2ccccc12` [CBK084325]: 77.4575.
Turning to `O=C(C1CCCCC1)N1CC[C@H](c2nnc(-c3cccnc3)o2)C1` [CBK289412], the “% of control remaining” value under setting [1] worked out at 84.2165.
The same measure, in the same setting: then `CC(C)(C)OC(=O)N1CCN(c2nccnc2OCCO)CC1` [CBK001869], with 93.045; and `CC(C)C(=O)N1CCCC2(CC1)CN(C)Cc1ccccc1O2` (stereo not drawn) [CBK285132], with 77.525; and `O=C(c1cncnc1)N1CCC(Cc2ccccc2)CC1` [CBK200212], with 110.87.
Same read-out and setting: then `CCCCN1CCN(S(=O)(=O)c2ccc(Br)cc2)CC1` [CBK144055], with 65.4509; and `CCn1c(SCC(=O)NC2CC2)nc2ccccc21` [CBK305864], with 65.9071; and `O=S(=O)(N1CCNCC1)N1CCOCC1` [CBK267467], with 104.783.
As for `O=C(NC1CCCCC1)C1CCC1` [CBK011511], under setting [1], the “% of control remaining” value is given as 59.46.
Same read-out and setting: then `Cn1c(=O)c2c(ncn2Cc2ccccc2)n(C)c1=O` [CBK133402], with 38.5059; and `O=C1COc2ccccc2CCCC[C@@H]2CN(C(=O)Cn3ccc(=O)[nH]c3=O)CC[C@H]2N1` [CBK292048], with 148.088; and `COCC(=O)NC1CCN(CC2(c3ccc(F)cc3)CCCC2)CC1` [CBK285387], with 79.1019.
On the same count and under the same terms, next, `Cc1ccc(-c2nc3ncc(C#N)c(N)n3n2)cc1` [CBK288153]: 95.2509.
Same read-out and setting: next, `COc1ccc(CN2CC[C@H]3NC(=O)CNC(=O)C4(C/C=C/C[C@H]3C2)CCN(C(C)=O)CC4)cc1` [CBK292013]: 92.8929.
`CC(C)CCN1CCC2CN(CCCC(c3ccc(F)cc3)c3ccc(F)cc3)CCN2C1=O` (stereo not drawn) [CBK024898C]: the “% of control remaining” value under setting [1] was 77.0838.
Same read-out and setting: then `COc1cc(-c2nccnc2NCCCO)cc(OC)c1OC` [CBK037274], with 81.4732; and `CN(C1CCCCC1)C1CCN(CCc2ccccc2)CC1` [CBK261918], with 72.9586.
On the same count and under the same terms, next, `O=C(CCCOc1ccc(Cl)cc1Cl)Nc1ccc(O)cc1C(=O)O` [CBK131688]: 122.963; `CS(=O)(=O)N1CCN(c2ccc(NC(=O)COc3ccc4ccccc4c3)cc2)CC1` [CBK266450]: 124.938; `Oc1ccc(-c2cncc(Nc3ccc(Br)c(Cl)c3)n2)cc1` [CBK107806]: 66.3902.
In the case of `O=C(CN1C(=O)c2ccccc2C1=O)Nc1cccc(-c2cnc3ccccc3n2)c1` [CBK268614], the “% of control remaining” value under setting [1] came to 88.5351.
The same measure, in the same setting: next, `O=c1[nH]c(=S)[nH]c2c1CCC2` [CBK113252]: 96.4307; `COc1ccc(S(=O)(=O)N(CC(=O)Nc2cccnc2)c2ccc(F)cc2)cc1` [CBK268445]: 104.898.
For the compound `CN(C)c1ccc(NC(=O)CN2C(=O)[C@H]3CCCN3c3ncccc32)cc1` [CBK286202], the “% of control remaining” value under setting [1] was determined as 150.78.
As for `COc1ccc(-c2ccc(CN(Cc3ccc4c(c3)OCO4)CC(C)O)cc2)cc1` (stereo not drawn) [CBK286470], under setting [1], the “% of control remaining” value turned out to be 77.5912.
Still for that read-out and setting: then `Cc1cc(NS(=O)(=O)c2cccc3cccnc23)n(C)n1` [CBK067242], with 94.4803.
The same measure, in the same setting: next, `CCS(=O)(=O)N1CCN(S(=O)(=O)c2ccccc2[N+](=O)[O-])CC1` [CBK264289]: 128.113; `O=C1NC2(CCCCC2)C(=O)N1c1ccc(F)cc1F` [CBK281945]: 99.8757.
On the same count and under the same terms, then `CN1CCC2(CC1)OCc1cc(-c3cccnc3)ccc1O2` [CBK061020], with 85.6917.
As to `O=C1CC(c2ccccc2O)CC2=C1C=Nc1ccccc1N2` (stereo not drawn) [CBK270287], the “% of control remaining” value under setting [1] is 61.5726.
On the same count and under the same terms, next, `COCCNc1nc(-c2ccccc2CO)ccc1C(=O)NCCNC(C)=O` [CBK076548]: 76.3085; `O=C(NCc1ccccn1)c1cnn(-c2ccc(Cl)cc2)c1C(F)(F)F` [CBK116637T]: 85.391; `NC(=O)c1c(NC(=O)COc2ccc(Cl)cc2)sc2c1CCC2` [CBK262163]: 95.4704.
Still for that read-out and setting: next, `FC(F)(F)c1nc2ccccc2nc1OCCN1CCNCC1` [CBK113302]: 88.3478; `O=C(Cc1c[nH]c(=O)[nH]c1=O)N1CCCCC1c1nc2cc(F)ccc2[nH]1` (stereo not drawn) [CBK291108]: 79.1418.
Same read-out and setting: next, `Cc1cc2nc(COC(=O)N3CCOCC3)[nH]c2cc1C` [CBK200144]: 69.6214.
For `CC(=O)N1CCC(C(=O)N2CCC(C(=O)NC(c3ccccn3)c3cccs3)CC2)CC1` (stereo not drawn) [CBK060118], the “% of control remaining” value under setting [1] worked out at 89.1051.
On the same count and under the same terms, next, `O=C(O)c1cc2ncc(-c3n[nH]cc3[N+](=O)[O-])cn2n1` [CBK269072]: 84.6075; `CC(C)NC(=O)[C@H]1CN2CCC1C[C@@H]2Cn1cc(C2(O)CCCCC2)nn1` (stereo partly drawn) [CBK288732]: 94.5641.
Regarding `O=C(Nc1ccccn1)C1CCCN1c1nc(O)cc(C(F)(F)F)n1` (stereo not drawn) [CBK004254], the “% of control remaining” value under setting [1] came out at 109.04.
Still for that read-out and setting: then `O=C(Nc1cnc2ccccc2c1)OCCc1cccnc1` [CBK200126], with 78.0658; and `O=C1CN(C(=O)NCc2ccc(Cl)cc2)CCN1` [CBK155867], with 109.738.
Still for that read-out and setting: next, `COc1ccc(CC(=O)Nc2ccc(S(=O)(=O)NC(C)C)cc2)cc1` [CBK267833]: 83.5332; `COc1cccc(C(=O)Nc2cc3c(cc2C(O)c2ccccc2Cl)OCCO3)c1` (stereo not drawn) [CBK268004]: 90.5958.
On the same count and under the same terms, then `CCOC(=O)c1cnc2ccc(F)cc2c1NCCN(C)C` [CBK265751], with 82.0583; and `CSc1nc(C)cc(OCC(=O)Nc2ccc(Cl)cc2)n1` [CBK267525], with 109.159; and `CNC(=O)NC(=O)C1CCN(CCc2cccs2)CC1` [CBK034960], with 97.2203.
`CC1(c2ccco2)NC(=O)N(Cc2ncc(-c3cccs3)o2)C1=O` (stereo not drawn) [CBK305398]: the “% of control remaining” value under setting [1] amounted to 41.451.
The same measure, in the same setting: then `CN(C)c1ncc(-c2ccc(O)cc2)cc1C(=O)NCc1ccc(F)cc1` [CBK106396], with 109.752; and `CC(C(=O)N(CCC#N)Cc1cccnc1)n1cnc2ccccc21` (stereo not drawn) [CBK304127], with 71.9983.
With `CCOc1ccccc1Nc1c([N+](=O)[O-])nn(-c2ccc(OC)cc2)[n+]1[O-]` [CBK268411], under setting [1], the “% of control remaining” value came out at 102.564.
On the same count and under the same terms, next, `Cc1nc(-c2ccccc2)sc1C(=O)C1=C(O)C(=O)N(CCCN2CCOCC2)C1c1cccs1` (stereo not drawn) [CBK266601]: 85.6232; `Cc1cc(C)c(OCCNC(=O)c2ccccc2Sc2ccccc2C#N)c(C)c1` [CBK266048]: 105.848.
